# Measurements reported in PubChem BioAssay AID2100 (National Center for Advancing Translational Sciences (NCATS), 2009).
# The campaign covered roughly 300,000 compounds. About 1,200 (0.4%) were called active. Inconclusive results, whose numbers are uncertain, are shown with a selection of clear calls. The call rests on the fitted dose curve; in most records, active means well fitted inhibition curve with a large enough effect; inconclusive means small, poorly fitted or top-dose-only effect, or another doubt; inactive means no such curve, though single readings can be large or run the other way. A potency beside an inconclusive call is a rough fit, not a confirmed value.
# Biological target: Lysosomal alpha-glucosidase (Homo sapiens) (UniProt P10253)
# Assay: qHTS Assay for Inhibitors and Activators of Human alpha-Glucosidase Cleavage of Glycogen;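 on activity change, negative = inhibition: 0% = full enzyme reaction and -100% = no-enzyme basal signal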
# Conditions: recombinant GAA, glycogen substrate, Amplex Red glucose oxidase fluorescence; activity change, negative = inhibition: at 76.4 µM (top of the series) unless noted
# Summary of the method: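 Natural-substrate format: glycogen cleavage by 4 nM human enzyme, glucose read by Amplex Red coupling (Ex 573, Em 610 nm). Normalized to enzyme and no-enzyme controls.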
# Potency means the concentration at half of the fitted maximal effect.
SMILES,"activity change, negative = inhibition",Potency
COc1ccc(S(=O)(=O)Nc2ccc(S(=O)(=O)Nc3nccs3)cc2)cc1,inactive: 5.32%,
COc1ccccc1CNC(=O)CSc1ccc(-c2sc(-c3ccccc3)nc2C)nn1,inactive: 6.94% [at 76.3 µM],
Cc1c(C)n(Cc2ccc(F)cc2)c2ccc(C(=O)NCCN3CCOCC3)cc12,inactive: 3.57% [at 76.3 µM],
CC(C)NC(=S)Nc1c(N)[nH]c(=O)[nH]c1=O,,"inconclusive: 28.2 µM [inhibitor, single point]"
CCC(=O)N1CCc2cc(S(=O)(=O)NC(Cc3ccccc3)C(=O)Nc3ccccc3C)ccc21 (configuration not stated),,"inconclusive: 8.91 µM [inhibitor, single point]"
COc1cc2[nH]c(=S)nc(NC3CCCCCC3)c2cc1OC,,"inconclusive: 35.5 µM [inhibitor, single point]"
COCCNc1c(-c2cc3ccc(C)c(C)c3[nH]c2=O)nc2ccccn12,,"inconclusive: 12.5 µM [inhibitor, partial curve]"
COc1ccc(-c2ccc(/C=C(\NC(=O)c3ccccc3)C(=O)N3CCOCC3)o2)cc1,,"inconclusive: 31.4 µM [inhibitor, partial curve]"
N#Cc1c(-c2ccncc2)c2c([nH]c1=S)CCCC2,inactive: -20.4%,
CC(C(=O)Nc1ccc(OC(F)(F)F)cc1)N1Cc2ccccc2C1=O (configuration not stated),inactive: -21% [at 76.3 µM],
O=C(O)c1ccc(N/N=C/c2cn(Cc3ccc(F)cc3)c3ccccc23)cc1,,"inconclusive: 35.5 µM [inhibitor, partial curve]"
Nc1c(N2CCOCC2)cc(Cl)c2nonc12,,"inconclusive: 35.5 µM [inhibitor, partial curve]"
COc1ccc(C(=O)CC2(O)C(=O)N(Cc3cccc(C(F)(F)F)c3)c3ccccc32)cc1 (configuration not stated),inactive: 2.29% [at 76.3 µM],
O=C(CCc1ccc(O)c(O)c1)NNC(=S)NCCc1ccccc1,,"inconclusive: 3.55 µM [inhibitor, full curve]"
CCS(=O)(=O)N1CC(=O)N(c2ccc(Cl)cc2)C(C)(C(=O)NC2CCCCC2)C1 (configuration not stated),inactive: 16.4% [at 76.3 µM],
COc1ccc(NC(=O)CCNS(=O)(=O)c2ccc3c(c2)c(=O)n(C)c(=O)n3C)cc1,inconclusive: 40.5% [activator],
CCc1nn2cc(-c3ccccc3)nc2s1,inactive: 0.792%,
Cc1ccc(/C=N\Nc2nc3ccc(Cl)cc3[nH]2)o1,,active: 6.26 µM
COc1ccc(-c2nc3ccccc3s2)cc1NC(=O)c1ccc(F)cc1,inactive: 0.706% [at 76.3 µM],
COc1ccc2c(C)cc3n[nH]c(=S)n3c2c1,,"inconclusive: 50.1 µM [inhibitor, single point]"
O=C(CSc1nnc(Nc2ccccc2F)s1)c1cc2ccccc2o1,,"inconclusive: 39.8 µM [inhibitor, single point]"
CCOC(=O)C(=Cc1ccc(-c2ccsc2C(=O)OC)o1)C(=O)OCC,,"inconclusive: 6.31 µM [inhibitor, single point]"
O=C(NNC(=S)NCC1CCCO1)c1cccc(S(=O)(=O)N2CCOCC2)c1 (configuration not stated),,"inconclusive: 1.11 µM [inhibitor, full curve]"
O=c1nc2c(O)cccn2c2c1c(=O)[nH]c1ccccc12,inactive: -5.75%,

SMILES,"activity change, negative = inhibition",Potency
Cc1cc(SCC(=O)N/N=C/c2ccc(O)c(O)c2)c(C)cc1Br,,active: 17.8 µM
CCc1ccccc1N1CSC2=C(C#N)C(c3cc(OC)c(OC)cc3OC)CC(=O)N2C1 (configuration not stated),,"inconclusive: 56.2 µM [inhibitor, single point]"
CC(C)(C)NNC(=S)Nc1cccc(F)c1,,"inconclusive: 12.6 µM [inhibitor, partial curve]"
O=C(Nc1ccc(N2CCCC2)cc1)C(Cl)c1ccccc1 (configuration not stated),,"inconclusive: 22.2 µM [inhibitor, single point]"
CC(=O)Nc1ccc(N(C(=O)Cn2nnc3ccccc32)C(C(=O)NCc2ccccc2)c2ccc(C)cc2)cc1 (configuration not stated),inactive: 6.7% [at 76.3 µM],
COC(=O)c1c(-n2c(C)cc(C=O)c2C)sc2c1CCCC2,inactive: -1.44%,
N#CCOC(=O)/C=C/c1ccc2c(c1)OCO2,,"inconclusive: 31.6 µM [inhibitor, single point]"
C/C(=N\Nc1nc(N2CCCCC2)nc(N2CCOCC2)n1)c1cccs1,,"inconclusive: 4.47 µM [inhibitor, full curve]"
O=S(=O)(Nc1ccccc1O)c1ccc(-c2ccccc2)cc1,,"inconclusive: 50.1 µM [inhibitor, single point]"
CC(C)CNC(=O)NC1(C(F)(F)F)Oc2ccccc2O1,inactive: -18%,
COc1cc(/C=N/NC(=S)Nc2cccc(C(=O)O)c2)ccc1O,,"inconclusive: 31.6 µM [inhibitor, partial curve]"
O=C(NNS(=O)(=O)c1ccc(Cl)cc1)c1sccc1-n1cccc1,,"inconclusive: 17.8 µM [inhibitor, single point]"
Cc1ccc(Nc2oc(C)nc2C#N)cc1,,"inconclusive: 35.2 µM [inhibitor, single point]"
CN1\C(=C/C=C/C=C/C=[N+](C)C)C(C)(C)c2ccccc21,,"inconclusive: 17.8 µM [inhibitor, partial curve]"
Cc1ccc(-n2cc(-c3ccc([N+](=O)[O-])cc3)[nH]c2=S)c(C)c1,,"inconclusive: 28 µM [inhibitor, partial curve]"
CC(C)COc1ccc(C(=O)Nc2cc(-c3ccccc3)no2)cc1,inactive: -5.87% [at 76.3 µM],
Cc1cc(C)cc(NC(=S)N(Cc2ccc(Cl)cc2)Cc2ccc(C(=O)O)cc2)c1,,"inconclusive: 10 µM [inhibitor, single point]"
O=C(Nc1ccc(C(F)(F)F)cc1Cl)c1ccc(Cn2cc(Br)cn2)o1,inactive: -3.36%,
Cc1ccc(-c2nc(C=Nc3ccc(O)cc3)c(O)o2)cc1,,"inconclusive: 10 µM [inhibitor, full curve]"
Cc1ccc(C)c(N2CCN(C(=O)Cc3ccc(NC4=NC5CS(=O)(=O)CC5S4)cc3)CC2)c1 (configuration not stated),,"inconclusive: 44.7 µM [inhibitor, single point]"
Cc1nn(-c2ccccc2Cl)c(Cl)c1/C=N/Nc1cccc(C(=O)O)c1,,"inconclusive: 12.6 µM [inhibitor, partial curve]"
O=C(NCCCO)c1ccc2nc(-c3ccco3)c(-c3ccco3)nc2c1,inactive: -6.65%,
COc1cc(/C=N/NC(=S)Nc2cccc(S(=O)(=O)N(C)C)c2)cc(OC)c1O,,"inconclusive: 17.8 µM [inhibitor, partial curve]"
